In patent publication US20240382610A1 (TALLAC THERAPEUTICS, published 2024):

T1: Cyno nectin-4 ECD-6His (TNT-255) (cynomolgus, UniProt Q96NY8 32-349 (human entry))
T1 construct: entry includes the 6His tag
T1 chain: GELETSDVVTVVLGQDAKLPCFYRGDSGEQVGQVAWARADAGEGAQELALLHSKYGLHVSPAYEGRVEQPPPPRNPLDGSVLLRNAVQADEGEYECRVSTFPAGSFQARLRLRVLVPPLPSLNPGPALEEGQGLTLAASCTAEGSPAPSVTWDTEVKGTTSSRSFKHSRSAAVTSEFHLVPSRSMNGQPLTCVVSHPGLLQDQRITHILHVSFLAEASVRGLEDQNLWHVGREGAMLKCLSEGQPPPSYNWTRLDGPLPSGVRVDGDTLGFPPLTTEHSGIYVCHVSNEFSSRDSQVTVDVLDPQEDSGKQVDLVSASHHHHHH

T2: Human nectin-4 ECD-6His (TNT-175) (human, UniProt Q96NY8 32-349)
T2 construct: the entry holds the extracellular domain with the C-terminal 6His tag
T2 sequence: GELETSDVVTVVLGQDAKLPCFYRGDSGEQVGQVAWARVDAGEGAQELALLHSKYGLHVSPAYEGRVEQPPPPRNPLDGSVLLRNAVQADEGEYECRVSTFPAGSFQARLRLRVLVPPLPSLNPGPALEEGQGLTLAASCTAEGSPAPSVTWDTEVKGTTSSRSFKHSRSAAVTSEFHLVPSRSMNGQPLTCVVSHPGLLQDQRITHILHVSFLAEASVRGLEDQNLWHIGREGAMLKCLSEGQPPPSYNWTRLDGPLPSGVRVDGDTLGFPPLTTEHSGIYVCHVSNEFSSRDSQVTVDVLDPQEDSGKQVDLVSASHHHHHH

T3: Mouse nectin-4 ECD-6His (TNT-250) (mouse, UniProt Q8R007 31-347)
T3 construct: entry includes the 6His tag; also called mouse nectin-4-LCD
T3 sequence: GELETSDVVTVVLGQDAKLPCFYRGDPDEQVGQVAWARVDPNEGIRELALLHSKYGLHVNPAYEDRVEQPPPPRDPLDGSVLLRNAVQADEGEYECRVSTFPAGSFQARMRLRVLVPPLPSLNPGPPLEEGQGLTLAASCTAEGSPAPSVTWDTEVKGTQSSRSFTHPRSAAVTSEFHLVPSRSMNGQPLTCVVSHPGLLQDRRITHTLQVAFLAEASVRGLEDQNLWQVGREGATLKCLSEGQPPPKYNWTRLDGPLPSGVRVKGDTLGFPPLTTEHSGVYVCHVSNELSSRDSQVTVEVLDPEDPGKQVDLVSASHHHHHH

T4: Human nectin-4-IgV-6His (TNT-252) (human, UniProt Q96NY8 32-147)
T4 construct: entry includes the 6His tag
T4 sequence: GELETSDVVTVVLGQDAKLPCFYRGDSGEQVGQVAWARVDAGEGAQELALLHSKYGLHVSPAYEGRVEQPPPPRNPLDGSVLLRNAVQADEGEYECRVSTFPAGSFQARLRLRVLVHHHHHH


Columns and labels:
[1] = molecular target: T1, Cyno nectin-4 ECD-6His (TNT-255); assay: SPR Biacore 8K, mAb on protein A
Description: (§1) The running buffer was 10 mM HEPES, pH 7.4, 150 mM NaCl, 3 mM EDTA, 0.05% (v/v) Surfactant P20 (HBS-EP+). […] The nectin-4 analytes were injected in either single-cycle kinetics or multi-cycle kinetics mode at nominal starting concentrations of 300 nM or 900 nM with 3-fold serial dilutions. Association times were monitored for 120 s, and dissociation times were monitored 1800 s at 30 μL/min flow rate. The surfaces were regenerated with 10 mM glycine at pH1.7 or 75 mM phosphoric acid at pH1.6 for two pulses of 15 s at 30 μL/min flow rate.
(§2) The data were processed and analyzed with Biacore 8K Evaluation Software Version 3.0.12.15655 (Cytiva, Global Life Sciences Solutions USA LLC, Marlborough, MA). […] The responses from the nearest buffer blank injection were then subtracted from the reference subtracted data (2-1) to yield double-referenced data. These double-reference data were fit to a simple 1:1 Langmuir binding model with mass transport to determine the apparent association (ka) and dissociation rate constants (kd). The apparent equilibrium dissociation constant or affinity constant was then calculated based on their ratio as (KD=kd/ka).

[2] = molecular target: T2, Human nectin-4 ECD-6His (TNT-175); assay: SPR Biacore 8K, mAb on protein A
Description: as §1, §2

[3] = molecular target: T3, Mouse nectin-4 ECD-6His (TNT-250); assay: SPR Biacore 8K, mAb on protein A
Description: as §1, §2

[4] = molecular target: T4, Human nectin-4-IgV-6His (TNT-252); assay: SPR Biacore 8K, mAb on protein A
Description: as §1, §2

[5] = molecular target: T1, Cyno nectin-4 ECD-6His (TNT-255); assay: SPR Biacore 8K
Description: (§3) Further testing of select nectin-4 antibodies to human, mouse and cyno nectin-4. Additional assessment of the nectin-4 antibodies was performed to measure binding to human, mouse, and cynomolgus nectin-4. Biacore 8K (Cytiva, Marlborough, MA) was used to further characterize binding of four of the nectin-4 monoclonal antibodies.
(§4) All experiments were performed at 25° C. temperature and in HBS-EP+ run buffer (10 mM HEPES, pH 7.4, 150 mM NaCl, 3 mM EDTA, 0.05% Tween-20). The antibodies were captured or immobilized on a Biacore chip either through amine-coupling method on a CM5 or captured by ProteinA chip or captured by anti-mouse polyclonal antibody or anti-human polyclonal antibody. […] The data were processed and analyzed in Biacore Insight Evaluation Software using double-reference subtraction of the data and then fitted to a simple Langmuir binding model using global kinetic rate constants for association (Kₐ), dissociation (Kd), and Rₘₐₓ values per sample. Fit quality was determined by inspection of the residuals and of statistical T values and the equilibrium dissociation (or affinity) constant was deduced by the ratio of the kinetic rate constants. KD=Kd/Kₐ.

[6] = molecular target: T2, Human nectin-4 ECD-6His (TNT-175); assay: SPR Biacore 8K
Description: as §3, §4

[7] = molecular target: T3, Mouse nectin-4 ECD-6His (TNT-250); assay: SPR Biacore 8K
Description: as §3, §4

[8] = molecular target: T4, Human nectin-4-IgV-6His (TNT-252); assay: SPR Biacore 8K
Description: as §3, §4

Binder | Kd [1] [nM] | Kd [2] [nM] | Kd [3] [nM] | Kd [4] [nM] | Kd [5] [nM] | Kd [6] [nM] | Kd [7] [nM] | Kd [8] [nM]
TNT-206 (antibody, human IgG1, kappa) heavy: QVQLQESGPGLVKPSGTLSLTCTVSGGSISSGGYYWAWIRQPPGKGLEWIGSIYYTGSTYYNPSLKSRVTIYVDTSKNQFSLKLSSVTAADTAVYYCARDPFPEPPDAFDIWGQGTMVTVSSASTKGPSVFPLAPSSKSTSGGTAALGCLVKDYFPEPVTVSWNSGALTSGVHTFPAVLQSSGLYSLSSVVTVPSSSLGTQTYICNVNHKPSNTKVDKKV[letters of human IgG1 Fc and a few adjoining residues left out] light: EIVLTQSPATLSVSPGERATLS[letters of about 80 residues left out][letters of about 120 residues left out] | 23.5 | 17.7 | 18.7 | 18.7 | – | – | – | –
TNT-210 (antibody, human IgG1, kappa) heavy: EVQLVQSGGGVVQPGRSLRLSCAASGFTFSSYAMHWVRQAPGKGLEWVAVISYDGSNKYYADSVKGRFTISRDNSKNTLYLQMNSLRAEDTAVYYCARATLQLWLPLFDYWGQGTLVTVSSASTKGPSVFPLAPSSKSTSGGTAALGCLVKDYFPEPVTVSWNSGALTSGVHTFPAVLQSSGLYSLSSVVTVPSSSLGTQTYICNVNHKPSNTKVDKKV[letters of human IgG1 Fc and a few adjoining residues left out] light: [letters of about 200 residues left out] | 36.7 | 13.3 | 15 | 17.5 | 36 | 12 | 12 | 17

More lines, in order of falling Kd [1], values ahead:

Kd [1] [nM] | Kd [2] [nM] | Kd [3] [nM] | Kd [4] [nM] | Kd [5] [nM] | Kd [6] [nM] | Kd [7] [nM] | Kd [8] [nM] | Binder
55 | 17.5 | 331 | 28.9 | – | – | – | – | TNT-209 (antibody, human IgG1, kappa) heavy: EVQLVESGGGLVQPGGSLRLSCAASGFTFSDYYMSWIRQAPGKGLEWVSGISWNSGSIGYADSVKGRFTISRDNSKNTLYLQMNSLRAEDTAVYYCASSGSWYLPLDYWGQGTLVTVSSASTKGPSVFPLAPSSKSTSGGTAALGCLVKDYFPEPVTVSWNSGALTSGVHTFPAVLQSSGLYSLSSVVTVPSSSLGTQTYICNVNHKPSNTKVDKKV[letters of human IgG1 Fc and a few adjoining residues left out] light: DIQMTQSPSSLSASVGDRVTITCQASQDISNYLNWYQQKPGKVPKLLIYAASTLQSGVPSRFSGSGSGTDFTLTISSLQPEDFATYYCQQSYSTPLTFGGGTKVEIKRTVAAPSVFIFPPSDEQLKSGTASVVCLLNNFYPREAKVQWKVDNALQSGNSQESVTEQDSKDSTYSLSSTLTLSKADYEKHKVYACEVTHQGLSSPVTKSFNRGEC
10.2 | 2.08 | 4.34 | 6.82 | – | – | – | – | TNT-204 (antibody, human IgG1, kappa) heavy: EVQLLESGGGVVQPGRSLRLSCAASGFTFSSYGMHWVRQAPGKGLEWVAVISYDGSNKYYADSVKGRFTISRDNSKNTLYLQMNSLRAEDTAVYYCAKSSYYDYVWGSYRYTDAFDIWGQGTMVTVSSASTKGPSVFPLAPSSKSTSGGTAALGCLVKDYFPEPVTVSWNSGALTSGVHTFPAVLQSSGLYSLSSVVTVPSSSLGTQTYICNVNHKPSNTKVDKKV[letters of human IgG1 Fc and a few adjoining residues left out] light: EIVLTQSPATLSLSPGERATLSCRASQSVSSSYLAWYQQKPGQAPRLLIYGASSRATGIPDRFSGSGSGTDFTLTISRLEPEDFAVYYCQQYNNWWTFGQGTKVDIKRTVAAPSVFIFPPSDEQLKSGTASVVCLLNNFYPREAKVQWKVDNALQSGNSQESVTEQDSKDSTYSLSSTLTLSKADYEKHKVYACEVTHQGLSSPVTKSFNRGEC
